From PubChem BioAssay AID488969 (Vanderbilt High Throughput Screening Facility, 2010)
In all, about 110,000 compounds were measured (“z-score”: median about -0.1, highest 2% from about 2 on). This is one part of the list. The source made the active and inactive calls.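 The calls were made as follows: active = z-score in the third read window above 3 or below -3; inactive = the rest.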

Target: Metabotropic glutamate receptor 8 (Rattus norvegicus) (UniProt P70579)
Assay: mGluR8 Gi/Go-coupled signaling modulation – cell-based, rat, thallium flux, HTS, primary screen (AID 488969)
Details: HEK293 rat mGluR8, GIRK (G protein-gated inwardly rectifying potassium channel) thallium flux, FluoZin2; at 10 µM; stronger effect = higher value

UniProt P70579, sequence (P70579 whole entry, looked up): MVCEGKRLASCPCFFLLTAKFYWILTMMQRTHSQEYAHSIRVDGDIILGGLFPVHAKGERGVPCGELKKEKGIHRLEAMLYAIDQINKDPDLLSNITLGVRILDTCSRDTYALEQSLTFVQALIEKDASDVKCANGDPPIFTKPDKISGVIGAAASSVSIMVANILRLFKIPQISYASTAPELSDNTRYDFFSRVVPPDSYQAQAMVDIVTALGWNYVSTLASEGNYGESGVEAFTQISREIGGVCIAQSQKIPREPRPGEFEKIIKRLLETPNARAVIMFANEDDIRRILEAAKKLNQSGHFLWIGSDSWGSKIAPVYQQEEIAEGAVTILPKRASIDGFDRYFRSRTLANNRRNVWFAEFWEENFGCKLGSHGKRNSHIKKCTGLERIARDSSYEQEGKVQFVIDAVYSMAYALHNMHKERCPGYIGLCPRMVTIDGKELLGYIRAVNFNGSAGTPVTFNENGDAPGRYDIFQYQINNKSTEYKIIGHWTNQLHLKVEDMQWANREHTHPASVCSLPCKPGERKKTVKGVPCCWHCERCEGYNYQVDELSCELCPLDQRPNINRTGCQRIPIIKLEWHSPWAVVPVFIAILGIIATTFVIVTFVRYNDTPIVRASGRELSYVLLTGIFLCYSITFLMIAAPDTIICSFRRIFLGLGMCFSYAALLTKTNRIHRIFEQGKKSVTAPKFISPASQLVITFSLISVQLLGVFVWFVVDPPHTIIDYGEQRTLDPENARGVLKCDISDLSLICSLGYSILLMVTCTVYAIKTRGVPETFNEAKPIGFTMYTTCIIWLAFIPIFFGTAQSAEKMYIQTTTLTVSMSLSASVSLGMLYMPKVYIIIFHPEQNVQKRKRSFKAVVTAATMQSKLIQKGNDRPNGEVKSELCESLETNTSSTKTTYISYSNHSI

| SMILES | z-score |
| --- | --- |
| CCOC(=O)[C@@]1(C#N)[C@@H]2C=CC(C(N)=O)=CN2[C@@H](C(N)=O)[C@@H]1c1cccc(Cl)c1 | -0.0983 |
| O=C1/C(=C\c2ccc([N+](=O)[O-])cc2)N2CCC1CC2 | 0.0123 |
| c1cc2c(cc1CCNC1C3CC4CC(C3)CC1C4)OCO2 (centres undefined) | 2.3 |
| CN1CCN(Cc2nnc3n2-c2ccc(Cl)cc2C(c2ccccc2)=NC3)CC1 | -0.238 |
| CCCCN1C(=O)/C(=C\c2ccco2)C(=O)N(CCc2ccccc2)C1=O | -0.196 |
| CN1CCN(c2nc(N(C)C)oc(=O)c2C#N)CC1 | 0.0696 |
| Cc1nn(Cc2ccccc2Cl)c(C)c1C(=O)OCC(=O)N1CC(C)OC(C)C1 (centres undefined) | -0.383 |
| Cn1c(O)c(C=NCc2cccs2)c(=O)n(C)c1=O | 0.785 |
| CCCCCCn1c(O)c(C=NC2CCN(Cc3ccccc3)CC2)c(=O)[nH]c1=O | 0.147 |
| CC(ON1CC1(C(F)(F)F)C(F)(F)F)(C(N)=O)C(N)=O (centres undefined) | -0.0566 |
| CCCCN1C(=O)C(C2c3ccccc3C(=O)N2Cc2ccccc2)C(=O)NC1=S (centres undefined) | -0.451 |
| Cc1cc(C)[n+](C2C3CC4CC(C3)CC2C4)o1 (centres undefined) | -0.636 |
| CCCCCCCSc1cc(OC)c(CCNC)cc1OC | 2.15 |
| C=CCn1c(O)c(C(C)=NCCc2ccccc2)c(=O)[nH]c1=O | -0.42 |
| O=C1c2ccccc2C2(c3ccc(Cl)cc3)NCCN12 (centres undefined) | -0.42 |
| CCCCN1C(=N)C(CC)(CC)C(=O)NC1=O | -0.0121 |
| CCN(CC)S(=O)(=O)c1ccc(NN=C(C#N)C#N)cc1 | 0.152 |
| CCOC(=O)C1=C(N)OC2=C(C(=O)CCC2)C12C(=O)N(CC(N)=O)c1ccccc12 (centres undefined) | 0.437 |
| O=C(Cc1cccs1)N1CCC2(CC1)OCCO2 | -0.0671 |
| CC1CN=C(Nc2cccc3ccccc23)S1 (centres undefined) | -0.203 |
| CCN1CCN(Cc2cc(Br)ccc2O)CC1 | 0.115 |
| O=C(c1ccc2c(c1)ncn2C1CCCCC1)N1CCC2(CC1)OCCO2 | -0.048 |

| SMILES | z-score |
| --- | --- |
| O=C1NC(=O)N(Cc2ccco2)C(=O)/C1=C/c1ccc(-c2cccc([N+](=O)[O-])c2)o1 | -0.581 |
| O=[N+]([O-])c1ccc(Nc2ccccc2)cc1 | -1.4 |
| CC(=O)OC1C2CCC1C(N1CCCC1)CC2 (centres undefined) | -0.278 |
| O=C(Cc1ccccc1)OC(COCc1ccccc1)CN1CCOCC1 (centres undefined) | -0.289 |
| O=C(c1ccccc1F)c1cn(Cc2ccccc2)c2ccccc12 | -0.253 |
| N=Cc1c(O)n(-c2cccc(Cl)c2)c(=O)[nH]c1=O | 0.745 |
| Cc1ccc(-c2cc(C(F)F)n3ncc(C(=O)N4CCC5(CC4)OCCO5)c3n2)cc1 | -0.808 |
| Cc1cc(N)n(C2CCN(C)CC2)n1 | 0.0226 |
| Cc1ccc(Cl)cc1N1CCN(CCN)CC1 | -0.607 |
| O=Cc1cn(Cc2cccc([N+](=O)[O-])c2)c2ccccc12 | -0.285 |
| C=CCN1C(=O)NC(=O)C(Cc2ccc(OC)c(OC)c2)C1=O (centres undefined) | 0.487 |
| O=c1[nH]c2ccccc2c(=O)n1-c1cccc(Cl)c1 | -0.0839 |
| CCC(=NCCc1c[nH]c2ccccc12)c1c(O)n(-c2ccc(C)cc2)c(=O)[nH]c1=O | 0.261 |
| CN(C)C(Cc1ccc(C#N)cc1)C(=O)c1ccccc1 (centres undefined) | -0.0967 |
| CCC(C)NC(=O)c1c(N)n(Cc2ccc3c(c2)OCO3)c2nc3ccccc3nc12 (centres undefined) | -0.217 |
| Cc1ccc2c(c1)C1CN(C)CCC1N2C(=O)c1ccco1 (centres undefined) | 0.116 |
| CC(C)OCCCNC(=O)c1c(N)n(CC2CCCO2)c2nc3ccccc3nc12 (centres undefined) | -1.93 |
| O=C(N/N=C/c1c(O)n(C2CC2)c(=S)[nH]c1=O)c1ccccc1O | -0.398 |
| CCC(=O)N1N=C2C3CCN(CC3)C2C1c1ccccc1 (centres undefined) | -0.189 |
| CC(C)Oc1cccc(NC(=O)c2cccn(Cc3ccc4c(c3)OC(F)(F)O4)c2=O)c1 | -0.139 |
| CCCCCn1c(N)c(C(=O)NCc2cccs2)c2nc3ccccc3nc21 | -0.198 |
| O=[N+]([O-])c1ccc(N2CCNCC2)c2ncccc12 | -0.0341 |

| SMILES | z-score |
| --- | --- |
| Nc1c(C(=O)OC2CCCCC2)c2nc3ccccc3nc2n1CC1CCCO1 (centres undefined) | active: -4.66 |
| O=C(c1cccn2c(=O)c3cc(Br)ccc3nc12)N1CCC2(CC1)OCCO2 | -0.331 |
| Cc1ccc(-n2nc(C)cc2NC(=O)COc2cc(C)cc3oc(=O)c4c(c23)CCC4)cc1 | -1.33 |
| Nc1ccc(S(=O)(=O)N2CCCCC2c2cccnc2)cc1 (centres undefined) | -0.0891 |
| C=CCN1C(=O)NC(=O)/C(=C/c2ccc(OC)c(CSc3ccccn3)c2)C1=O | -0.342 |
| CC(C(=O)Nc1ccc(Br)cc1C(=O)c1ccccc1)N1CCOCC1 (centres undefined) | -0.634 |
| CCCCn1c(O)c(/C(CC)=N/N2CCCCC2c2cccnc2)c(=O)[nH]c1=S (centres undefined) | -0.36 |
| CCOc1ccccc1N1C(=O)NC(=O)/C(=C/c2ccc3c4c(cccc24)CC3)C1=O | -0.192 |
| Cn1c(O)c(C=NC2C(=O)C3(C)CCC2C3(C)C)c(=O)n(C)c1=O (centres undefined) | 0.302 |
| Nc1ccccc1C(=O)OCC(=O)N1CCc2ccccc21 | -0.195 |
| O=c1[nH]c(=O)n(Cc2ccco2)c(O)c1C=NCCN1CCOCC1 | 1.02 |
| Nc1c(C(=O)NCCc2ccccc2)c2nc3ccccc3nc2n1CCN1CCOCC1 | -0.0841 |
| CC1(C)CC(=O)C(C=NCCN2CCN(C(=O)Cc3ccc(Cl)cc3)CC2)=C(O)C1 | -0.133 |
| CC(C)c1ccc(N2C(=O)NC(=O)/C(=C/c3cnc(-c4ccccc4)nc3)C2=O)cc1 | -0.232 |
| CCC(=Nc1cc(OC)ccc1OC)c1c(O)[nH]c(=O)[nH]c1=O | 0.229 |
| NC(=O)CSP(=O)(c1ccccc1)c1ccccc1 | -0.255 |
| CSc1ccc(C(=O)C(C)(C)N2CCOCC2)cc1 | -0.262 |
| CCC(=O)Nc1cc(C(=O)N2CCC3(CC2)OCCO3)ccc1S(=O)(=O)c1ccc(C)cc1 | 0.0209 |
| Cc1ccc2nc(N3CCN(C)CC3)[nH]c2c1 | -0.362 |
| O=c1[nH]c(N2CCN(Cc3ccc4c(c3)OCO4)CC2)nc2c1CCC2 | 0.034 |
| Fc1cccc(F)c1CN1CCN(Cc2c(F)cccc2F)CC1 | -0.164 |
| O=C(O)C1C2CCC(O2)C1C(=O)NC1CCCCC1 (centres undefined) | 0.954 |

| SMILES | z-score |
| --- | --- |
| CCCCC1(CN2CCCC2=O)C(=O)NC(=O)NC1=O | -0.247 |
| Cc1cccc(NP(=O)(Oc2ccccc2F)Oc2ccccc2F)c1 | -0.239 |
| CC(=O)Nc1ccccc1C(=O)OCC(=O)c1ccc2ccccc2c1 | -0.0887 |
| COc1cccc(OC)c1C(=O)Nc1nc(N)n(-c2ccccc2)n1 | 0.163 |
| CCOC(=O)C(O)(c1ccc(N(C)C(=O)COc2ccccc2)cc1)C(F)(F)F (centres undefined) | -0.189 |
| Cn1c(O)c(C(=N)COc2ccccc2)c(=O)n(C)c1=O | -0.0284 |
| COc1ccc(C2C(C#N)=C(N)Oc3c2c(=O)oc2ccccc32)cc1Cn1cc([N+](=O)[O-])cn1 (centres undefined) | -0.874 |
| Cc1ccc(N2C(=O)/C(=C/c3ccc(CN(CCC#N)S(C)(=O)=O)o3)C(=O)NC2=S)cc1 | 0.251 |
| CCOC(=O)c1c(C)n(Cc2ccccc2)c2ccc(OCC(O)CN3C(=O)CNC3=O)cc12 (centres undefined) | -0.657 |
| O=c1[nH]c(=O)n(Cc2ccco2)c(O)c1C=NCc1ccc2c(c1)OCO2 | 0.136 |
| O=C(N/N=C/c1c(O)n(CCC2=CCCCC2)c(=O)[nH]c1=O)c1ccccc1 | -0.134 |
| CCCCCCn1c(O)c(C=Nc2c(C)n(C)n(-c3ccccc3)c2=O)c(=O)[nH]c1=O | -0.785 |
| CC(=NCC1CCCO1)c1c(O)n(-c2ccccc2)c(=O)[nH]c1=O (centres undefined) | 0.0257 |
| O=C1NC(c2cccnc2)Nc2sc3c(c21)CCCC3 (centres undefined) | -0.06 |
| C=CCOc1ccc(CC2C(=O)N(C)C(=O)N(C)C2=O)cc1 | -0.143 |
| CCOC(=O)c1cn2nc(OP(=S)(OCC)OCC)cc2nc1C | -0.867 |
| C[C@H]1CCCC(=O)CCC/C=C/c2cc(O)cc(O)c2C(=O)O1 | 0.3 |
| COc1ccccc1/C=N/N=C(/N)N[N+](=O)[O-] | 0.519 |
| CN(C)C(Cc1ccccc1)C(=O)c1ccc(-c2ccccc2)cc1 (centres undefined) | 0.0488 |
| Cc1cccc(N2C(=O)/C(=C/N3CCN(C(=O)c4ccco4)CC3)C(=O)NC2=S)c1 | -0.0877 |
| CCCCCCN=C(CC)c1c(O)n(CCCC)c(=O)[nH]c1=O | -0.63 |
| OCCN(CC#CC(O)(c1ccccc1)C1CCCC1)CCO (centres undefined) | -0.0873 |

| SMILES | z-score |
| --- | --- |
| CN(CCc1ccccc1)Cc1ccccc1[N+](=O)[O-] | -0.0898 |
| CCN1CCN(c2ccc([N+](=O)[O-])cc2C=C2C(=O)NC(=O)NC2=O)CC1 | -0.0685 |
| CCOC(=O)N(c1ccccc1)P1(=S)OCC(C)O1 (centres undefined) | -0.181 |
| Cc1cc(S(=O)(=O)NCC(C)C)ccc1OCC(=O)N1CCN(Cc2ccccc2)CC1 | 0.897 |
| CC1(C)CC(=O)C2=C(C1)NC(=O)C21C(C(=O)OC(C)(C)C)=C(N)Oc2ccc(Br)cc21 (centres undefined) | -0.103 |
| O=C1NC(=O)N(CCC2=CCCCC2)C(=O)/C1=C/c1ccc(O)cc1 | -0.103 |
| Cc1cccc(NC(=S)N2CC3CC(C2)c2cccc(=O)n2C3)c1C (centres undefined) | -0.188 |
| CCn1c(P(C)(=O)O)nc2ccccc21 | -0.338 |
| CCOC(=O)/C(CCCN(CC)CC)=N\O | -0.203 |
| COc1ccccc1CC1C(=O)C2CCN1CC2 (centres undefined) | 0.604 |
| CCCC12CN3CC(CCC)(CN(C1)C3c1ccccn1)C2=O (centres undefined) | 0.177 |
| O=c1[nH]c(CN2CCNCC2)nc2ccccc12 | -0.132 |
| CCC1=C(C)C(N2CCOCC2)=NP(N2CCOCC2)(N2CCOCC2)=N1 | 0.0677 |
| CCOC(=O)C(O)(c1ccc(NC(=S)NC(=O)c2ccc(Cl)cc2Cl)cc1)C(F)(F)F (centres undefined) | 1.47 |
| Cc1ccc(-n2c(C)cc(/C=C3/C(=O)NC(=O)N(C)C3=O)c2C)cc1 | -1.31 |
| COC(=O)C1=Nc2ccccc2/C1=C\c1c(O)n(-c2ccc(OC)cc2)c(=O)[nH]c1=O | 0.00423 |
| Cc1nn(Cc2ccccc2)c(Cl)c1C(=O)OC(C)C(=O)Nc1ccc(F)cc1Cl (centres undefined) | 0.0724 |
| CCOc1ccc(-n2c(O)c(C=NCCN3CCNCC3)c(=O)[nH]c2=O)cc1 | 0.65 |
| Cc1nc2c(=O)n(C)c(=O)nc-2n(C)n1 | 0.166 |
| Brc1ccc(CN2CCNCC2)s1 | 0.00892 |
| Cc1ccc(CN2CC3CC(C2)c2cccc(=O)n2C3)cc1 (centres undefined) | -0.0631 |
